Source: PubChem BioAssay AID1745853 (National Center for Advancing Translational Sciences (NCATS), 2022)
Several values for one entry are separate records, joined by “and”; a condition that tells them apart may be missing. Equal entries are not always repeated. The list shows a part of the results. These are further read-outs of the screen, such as a control signal, another cell line or another target. No call is given for them.

Key:
Assay in all cases: Primary Screen for Target Class Profiling of Small Molecule Inhibitors of Methyltransferases
[1] = target: Glycine N-methyltransferase (Homo sapiens) (UniProt Q14749); details: purified enzyme, MTase-Glo SAH luminescence; measured here: GNMT inhibition; at 40 µM; stronger effect = lower value
Summary of the method: (§1)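 Each enzyme was assayed with SAM and its substrate. SAH formation detected by MTase-Glo luminescence; single-point 40 uM screen[…].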

[2] = target: Guanidinoacetate N-methyltransferase (Homo sapiens) (UniProt Q14353); details: purified enzyme, MTase-Glo SAH luminescence; measured here: GAMT inhibition; at 40 µM; stronger effect = lower value
Summary of the method: as §1

[3] = target: Histamine N-methyltransferase (Homo sapiens) (UniProt P50135); details: purified enzyme, MTase-Glo SAH luminescence; measured here: HNMT inhibition; at 40 µM; stronger effect = lower value
Summary of the method: as §1

[4] = target: Nicotinamide N-methyltransferase (Homo sapiens) (UniProt P40261); details: purified enzyme, MTase-Glo SAH luminescence; measured here: NNMT inhibition; at 40 µM; stronger effect = lower value
Summary of the method: as §1

[5] = target: Phenylethanolamine N-methyltransferase (Homo sapiens) (UniProt P11086); details: purified enzyme, MTase-Glo SAH luminescence; measured here: PNMT inhibition; at 40 µM; stronger effect = lower value
Summary of the method: as §1
% is scaled to controls: 0 for no effect and ±100 for the full control effect.

SMILES: C[C@H](N)CN1CCc2ccc(Br)cc21
- activity change, negative = inhibition [1]: -3.13%
- activity change, negative = inhibition [2]: 14.8%
- activity change, negative = inhibition [3]: 6.74%
- activity change, negative = inhibition [4]: -3.06%
- activity change, negative = inhibition [5]: -0.563%

SMILES: CC[C@@H]1C[C@H]2CC[C@H](O2)[C@H](C)C(=O)O[C@@H](C)C[C@@H]2CC[C@@H](O2)[C@@H](C)C(=O)O[C@H](C)C[C@H]2CC[C@H](O2)[C@H](C)C(=O)O[C@@H](C)C[C@@H]2CC[C@@H](O2)[C@@H](C)C(=O)O1
- activity change, negative = inhibition [1]: 4.66%
- activity change, negative = inhibition [2]: 11.3%
- activity change, negative = inhibition [3]: 6.49%
- activity change, negative = inhibition [4]: -4.87%
- activity change, negative = inhibition [5]: 5.63%

SMILES: COc1ccccc1NC(=O)N1Cc2ccccc2-n2cccc2C1c1cccs1 (stereo not given)
- activity change, negative = inhibition [1]: 5.57%
- activity change, negative = inhibition [2]: 0%
- activity change, negative = inhibition [3]: 3.73%
- activity change, negative = inhibition [4]: 1.18%
- activity change, negative = inhibition [5]: 4.64%

SMILES: CCOc1ccccc1NC(=O)N1Cc2ccccc2-n2cccc2C1c1ccccc1C (stereo not given)
- activity change, negative = inhibition [1]: 9.27%
- activity change, negative = inhibition [2]: 4.43%
- activity change, negative = inhibition [3]: 3.96%
- activity change, negative = inhibition [4]: 2.99%
- activity change, negative = inhibition [5]: 4.31%

SMILES: O=C(O)COCC(=O)N1C[C@@H]2C[C@H](C1)c1ccc(-c3cc4ccccc4s3)c(=O)n1C2
- activity change, negative = inhibition [1]: -4.69%
- activity change, negative = inhibition [2]: -10.4%
- activity change, negative = inhibition [3]: -3.62%
- activity change, negative = inhibition [4]: -15.1%
- activity change, negative = inhibition [5]: 6.72%

SMILES: C[C@@H]1CCC2[C@@H](C)C(=O)OC3O[C@@]4(C)CCC1[C@]32OO4 (stereo not given in full)
- activity change, negative = inhibition [1]: -3.75%
- activity change, negative = inhibition [3]: 1.81%

SMILES: COCCCNC(=O)N1Cc2ccccc2-n2cccc2C1c1ccccc1Cl (stereo not given)
- activity change, negative = inhibition [1]: -0.015%
- activity change, negative = inhibition [2]: 2.61%
- activity change, negative = inhibition [3]: -1%
- activity change, negative = inhibition [4]: -8.17%
- activity change, negative = inhibition [5]: -1.53%

SMILES: CCCNC(=O)N1Cc2ccccc2-n2cccc2C1c1ccc(OC)c(OC)c1 (stereo not given)
- activity change, negative = inhibition [1]: 4.22%
- activity change, negative = inhibition [2]: 0%
- activity change, negative = inhibition [3]: -4.64%
- activity change, negative = inhibition [4]: -1.58%
- activity change, negative = inhibition [5]: 3.17%

SMILES: O=C([C@H]1CN2CCC1C[C@@H]2Cn1cc(CCO)nn1)N1CCOCC1 (stereo not given in full)
- activity change, negative = inhibition [1]: 0.12%
- activity change, negative = inhibition [2]: 1.4%
- activity change, negative = inhibition [3]: 0.845%
- activity change, negative = inhibition [4]: 0.907%
- activity change, negative = inhibition [5]: 5.96%

SMILES: O=C1NC(=O)c2c1c1c3ccccc3n3c1c1c2c2ccccc2n1C1CCC3O1
- activity change, negative = inhibition [2]: -33.1%
- activity change, negative = inhibition [4]: -39.3%
- activity change, negative = inhibition [5]: -12.3%

SMILES: CCCCCn1cc(C(=O)c2cccc3ccccc23)c2ccccc21
- activity change, negative = inhibition [1]: 5.29%
- activity change, negative = inhibition [2]: -16.4%
- activity change, negative = inhibition [3]: 10.8%
- activity change, negative = inhibition [4]: -22.4%
- activity change, negative = inhibition [5]: -6.7%

SMILES: CCOc1ccccc1NC(=O)N1Cc2ccccc2-n2cccc2C1c1ccc(Cl)cc1 (stereo not given)
- activity change, negative = inhibition [1]: -2.61%
- activity change, negative = inhibition [2]: 0.924%
- activity change, negative = inhibition [3]: 1.58%
- activity change, negative = inhibition [4]: -3.01%
- activity change, negative = inhibition [5]: 0.694%

SMILES: COC(=O)c1cccc(NC(=O)N2Cc3ccccc3-n3cccc3C2c2ccc(Cl)cc2)c1 (stereo not given)
- activity change, negative = inhibition [1]: -2.56%
- activity change, negative = inhibition [2]: 3.86%
- activity change, negative = inhibition [3]: -1.92%
- activity change, negative = inhibition [4]: -2.8%
- activity change, negative = inhibition [5]: 0.297%

SMILES: CCOc1ccc(NC(=O)N2Cc3ccccc3-n3cccc3C2c2cccc(C)c2)cc1 (stereo not given)
- activity change, negative = inhibition [1]: 8.34%
- activity change, negative = inhibition [2]: 0.244%
- activity change, negative = inhibition [3]: 7.35%
- activity change, negative = inhibition [4]: 5.82%
- activity change, negative = inhibition [5]: 4.85%

SMILES: CC(C)N(CCC(C(N)=O)(c1ccccc1)c1ccccn1)C(C)C (stereo not given)
- activity change, negative = inhibition [1]: 2.79% and -0.232% and 4.29%
- activity change, negative = inhibition [2]: 7.99% and -0.093% and -6.72%
- activity change, negative = inhibition [3]: -19.9% and 0.134% and -18.8%
- activity change, negative = inhibition [4]: -5.53% and -10.6% and -10.1%
- activity change, negative = inhibition [5]: -3.86% and -2.45% and -4.2%

SMILES: C/C=C(/C)C(=O)O[C@H]1[C@@H]2[C@H](C)C(=O)O[C@@H]2C[C@@H](C)[C@@H]2C=CC(=O)[C@]21C
- activity change, negative = inhibition [1]: -0.249%
- activity change, negative = inhibition [2]: 4.86%
- activity change, negative = inhibition [3]: 7.3%
- activity change, negative = inhibition [4]: -7.59%
- activity change, negative = inhibition [5]: 4.94%

SMILES: CC(=O)N1[C@H]2CC[C@@H]1c1cnc(-c3ccc(F)cc3)nc1C2
- activity change, negative = inhibition [1]: -7.17%
- activity change, negative = inhibition [2]: -14.4%
- activity change, negative = inhibition [3]: -5.82%
- activity change, negative = inhibition [4]: -19.8%
- activity change, negative = inhibition [5]: -10.6%

SMILES: O=[N+]([O-])/C=C/c1ccc2c(c1)OCO2
- activity change, negative = inhibition [1]: -15%
- activity change, negative = inhibition [2]: 13%
- activity change, negative = inhibition [3]: 2.34%
- activity change, negative = inhibition [4]: -5.86%
- activity change, negative = inhibition [5]: 9.16%

SMILES: COc1ccccc1NC(=O)N1Cc2ccccc2-n2cccc2C1C (stereo not given)
- activity change, negative = inhibition [1]: -0.696%
- activity change, negative = inhibition [2]: 0%
- activity change, negative = inhibition [3]: 9.59%
- activity change, negative = inhibition [4]: 1.26%
- activity change, negative = inhibition [5]: 5.75%

SMILES: Cc1ccccc1-c1ccc2n(c1=O)C[C@H]1C[C@@H]2CN(C(=O)NC2CCCCC2)C1
- activity change, negative = inhibition [1]: -5.42%
- activity change, negative = inhibition [2]: -14.4%
- activity change, negative = inhibition [3]: -5.59%
- activity change, negative = inhibition [4]: -14.8%
- activity change, negative = inhibition [5]: -12.1%

SMILES: CSc1ccc(C2c3cccn3-c3ccccc3CN2C(=O)NCc2ccccc2)cc1 (stereo not given)
- activity change, negative = inhibition [1]: 0.96%
- activity change, negative = inhibition [2]: 0%
- activity change, negative = inhibition [3]: 1.12%
- activity change, negative = inhibition [4]: 1.71%
- activity change, negative = inhibition [5]: 5.23%

SMILES: CC1=CC2/C=C(\C)CCCC(O)/C=C/C(=O)OC23C(=O)NC(CC(C)C)C3C1C (stereo not given)
- activity change, negative = inhibition [1]: 4.38%
- activity change, negative = inhibition [2]: 3.25%
- activity change, negative = inhibition [3]: 12.1%
- activity change, negative = inhibition [4]: -5.85%
- activity change, negative = inhibition [5]: 3.76%

SMILES: CSc1ccc(C2c3cccn3-c3ccccc3CN2C(=O)Nc2ccc(C)cc2C)cc1 (stereo not given)
- activity change, negative = inhibition [1]: -0.935%
- activity change, negative = inhibition [2]: 0%
- activity change, negative = inhibition [3]: 5.7%
- activity change, negative = inhibition [4]: -2.3%
- activity change, negative = inhibition [5]: 5.59%

SMILES: CN1CCN(C(=O)Cc2c[nH]c3ncc(-c4cccc(O)c4)cc23)CC1
- activity change, negative = inhibition [1]: -11.2%
- activity change, negative = inhibition [2]: -0.816%
- activity change, negative = inhibition [3]: -13.5%
- activity change, negative = inhibition [4]: -9.53%
- activity change, negative = inhibition [5]: -37.3%

SMILES: CC(Cc1ccc(OCC(=O)O)cc1)NCC(O)c1cccc(Cl)c1 (stereo not given)
- activity change, negative = inhibition [1]: 4.51%
- activity change, negative = inhibition [2]: 13.1%
- activity change, negative = inhibition [3]: 5.05%
- activity change, negative = inhibition [4]: -0.72%
- activity change, negative = inhibition [5]: 12.3%

SMILES: OC1CCCCC1N1CCC(c2ccccc2)CC1 (stereo not given)
- activity change, negative = inhibition [1]: 3.64%
- activity change, negative = inhibition [2]: 14.6%
- activity change, negative = inhibition [3]: -3.56%
- activity change, negative = inhibition [4]: -0.738%
- activity change, negative = inhibition [5]: 7.73%

SMILES: CCc1ccc(C2c3cccn3-c3ccccc3CN2C(=O)Nc2ccc(OC)cc2OC)cc1 (stereo not given)
- activity change, negative = inhibition [1]: 4.11%
- activity change, negative = inhibition [2]: 1.23%
- activity change, negative = inhibition [3]: -2.85%
- activity change, negative = inhibition [4]: -5.29%
- activity change, negative = inhibition [5]: 2.63%

SMILES: CC(C)=CCOc1c2occc2cc2ccc(=O)oc12
- activity change, negative = inhibition [1]: -27.3%
- activity change, negative = inhibition [2]: 9.08%
- activity change, negative = inhibition [3]: 7.81%
- activity change, negative = inhibition [4]: -13.8%
- activity change, negative = inhibition [5]: -1.78%

SMILES: C=CCN1C[C@H](C)N([C@H](c2ccc(C(=O)N(CC)CC)cc2)c2cccc(OC)c2)C[C@H]1C
- activity change, negative = inhibition [1]: -0.59%
- activity change, negative = inhibition [2]: -5.92%
- activity change, negative = inhibition [3]: 8.05%
- activity change, negative = inhibition [4]: -14.3%
- activity change, negative = inhibition [5]: -2.83%

SMILES: Cc1ccc(NC(=O)N2Cc3ccccc3-n3cccc3C2c2cccs2)cc1C (stereo not given)
- activity change, negative = inhibition [1]: 9.41%
- activity change, negative = inhibition [2]: 0%
- activity change, negative = inhibition [3]: 4.44%
- activity change, negative = inhibition [4]: 4.33%
- activity change, negative = inhibition [5]: 7.42%

SMILES: CC(C)CCN1CCC2CC(=O)NCCC2C1 (stereo not given)
- activity change, negative = inhibition [1]: -2.48%
- activity change, negative = inhibition [2]: -6.77%
- activity change, negative = inhibition [3]: -0.196%
- activity change, negative = inhibition [4]: -8.81%
- activity change, negative = inhibition [5]: -2.83%
